Experimental data reported in PubChem BioAssay AID686979 (National Center for Advancing Translational Sciences (NCATS), 2013).
Several values for one entry are separate records, joined by “and”; a condition that tells them apart may be missing. Identical values can stand only once. Screen size: about 420,000 compounds; about 50,000 (12%) were called active. Inconclusive results, whose numbers are uncertain, are shown with a selection of clear calls. Calls follow the shape of the dose curve; as a rule, active = well fitted inhibition curve with a large enough effect; inconclusive = small, poorly fitted or top-dose-only effect; inactive = flat fitted curve, though single readings scatter. Potencies of inconclusive entries are left out as doubtful fits.

assay: qHTS for Inhibitors of human tyrosyl-DNA phosphodiesterase 1 (TDP1): qHTS in cells in presence of CPT; conditions: chicken DT40 Tdp1-/-;hTDP1 cells + 20 nM CPT, ATP luminescence, 48 h; activity change, negative = growth inhibition: at 46.2 µM (top of the series) unless noted; also: nearly all actives have a fitted effect of over 55% in size
Procedure, shortened: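 Cell growth measured by CellTiter-Glo luminescence after a minimum 48 h, 37 C compound exposure with 20 nM CPT in Tdp1-knockout DT40 cells stably expressing hTDP1, seeded 400/well; qHTS titration format.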
% is scaled to controls: 0 for no effect and ±100 for the full control effect; potency is read from the fitted curve at half-maximal effect; tags tell the direction and shape of the fitted curve.

Row | SMILES | Potency | activity change, negative = growth inhibition
1 | COc1ccc(Cl)cc1S(=O)(=O)NC(C)C(=O)NCc1ccc2c(c1)OCO2 (stereo not drawn) | inconclusive [inhibitor, single point] | 
2 | CCOC(=O)C(C)NC(=O)CCc1nnc2ccc(N3CCCCC3)nn12 (stereo not drawn) |  | inactive: -28.8%
3 | CCOc1ccc(NS(=O)(=O)c2ccc(C(=O)NCc3ccncc3)cc2)cc1 | inconclusive [inhibitor, single point] | 
4 | CC(=O)OC1C(=O)N(Cc2ccccc2)C1c1ccc(C)cc1 (stereo not drawn) | inconclusive [inhibitor, single point] | 
5 | Cc1sc(NC(=O)Nc2ccccc2)c(C(N)=O)c1C | inconclusive [inhibitor, single point] | 
6 | Cc1ccc(NC(=O)COc2ccccc2)c(NC(=O)c2ccccc2C)c1 | inconclusive [inhibitor, partial curve, poor fit] | 
7 | O=S1(=O)CCN(OCc2ccc(Cl)cc2)CC1 |  | inactive: -12.1%
8 | COc1ccc(CCNCC(O)COc2ccc(Cl)cc2)cc1OC (stereo not drawn) | inconclusive [inhibitor, single point] | 
9 | CC(C)(C)c1ccc(-c2nnc(-c3ccccc3NC(=O)c3cccc(C(F)(F)F)c3)o2)cc1 |  | inactive: 4.3%
10 | OC(CCN1CC2CCC(CC2)C1)(Cc1ccccc1)c1ccco1 (stereo not drawn) | inconclusive [inhibitor, single point] | 
11 | C[C@H]1O[C@@H](O[C@H]2[C@@H](O)C[C@H](O[C@H]3[C@@H](O)C[C@H](O[C@H]4CC[C@@]5(C)[C@H](CC[C@@H]6[C@@H]5C[C@@H](O)[C@]5(C)[C@@H](C7=CC(=O)OC7)CC[C@]65O)C4)O[C@@H]3C)O[C@@H]2C)C[C@H](O)[C@@H]1O | active: 596 nM and active: 1.3 µM and active: 841 nM | 
12 | CCn1c(C(=O)N2CCC(Cc3ccccc3)CC2)cc2sccc21 | inconclusive [inhibitor, partial curve] | 
13 | Cn1c(=O)c2nc3ccccc3nc2n(C)c1=O |  | inactive: -1.47%
14 | Cc1ccc(C)c(Cn2c(=O)n(Cc3ccccc3)c(=O)c3sc4ccccc4c32)c1 |  | inactive: 5.76%
15 | CCOc1ccc(-c2[nH]ncc2Oc2ccccc2OCC)c(O)c1 | active: 6.51 µM | 
16 | Cn1c(=O)[nH]c(=O)c2c1nc(NCCO)n2CCOc1ccccc1 | inconclusive [inhibitor, single point] | 
17 | Cc1ccc(S(=O)(=O)N/N=C\c2ccc([N+](=O)[O-])o2)cc1C | active: 18.4 µM | 
18 | CCc1ccc(NC(=O)C(C)OC(=O)CCC(=O)c2cccs2)cc1 (stereo not drawn) |  | inactive: -2.49%
19 | CCOC(=O)c1oc2ccccc2c1CN1CCN(c2ccccc2)CC1 | inconclusive [inhibitor, single point] | 
20 | COC(=O)c1c(NC(=O)C2CCCCC2C(=O)O)sc2c1CCCCC2 (stereo not drawn) |  | inactive: -3.47%
21 | NC(=O)c1ccc(-n2nnnc2Oc2ccccc2)cc1 |  | inactive: 11.5%
22 | Cc1ccc(S(=O)(=O)CC(C)N2CCN(C3CCCCC3)CC2)cc1 (stereo not drawn) |  | inactive: 0.855%
23 | Cc1ccc(CNC(=O)CCNS(=O)(=O)c2ccc(C)cc2)cc1 |  | inactive: -20.8%
24 | Cc1ccc(-c2nn3c(-c4ccco4)nnc3c3ccccc23)cc1S(=O)(=O)NCC1CCCO1 (stereo not drawn) | inconclusive [inhibitor, single point] | 
25 | CCCn1c(=O)c(C(=O)Nc2ccccc2N)c(O)c2ccccc21 | active: 25.9 µM | 

Row | SMILES | Potency | activity change, negative = growth inhibition
26 | OC(CN1C2=NCCN2c2ccccc21)c1ccc(Br)cc1 (stereo not drawn) | inconclusive [inhibitor, single point] | 
27 | Cc1onc(NC(=O)NC(=O)c2ccccc2F)c1Br |  | inactive: -16.6%
28 | O=C(OCC(=O)N1CCOCC1)c1ccc(N2CCOCC2)c([N+](=O)[O-])c1 |  | inactive: 17.7%
29 | Cc1noc(NS(=O)(=O)c2ccc(N3Cc4ccccc4C3=O)cc2)c1C |  | inactive: -19.6%
30 | CCn1c(CNc2cccc(C(F)(F)F)c2)n[nH]c1=S |  | inactive: -21.5%
31 | Cc1nonc1CC(=O)N1CCCC(C(=O)c2cccc(C(F)(F)F)c2)C1 (stereo not drawn) | inconclusive [inhibitor, full curve, poor fit] | 
32 | CCOC(=O)c1ccc(NC(=S)Nc2cccc(N)n2)cc1 | inconclusive [inhibitor, single point] | 
33 | COc1cc(OC)cc(C(=O)NC(=S)N2CCN(c3ccc(C(F)(F)F)cc3[N+](=O)[O-])CC2)c1 | inconclusive [inhibitor, single point] | 
34 | O=C(NN1C(=O)C2C3C=CC(C4CC34)C2C1=O)c1cccc(Br)c1 (stereo not drawn) |  | inactive: -24.8%
35 | COc1cccc(CN2CCNC(=O)C2CC(=O)NC2CCCCCCC2)c1 (stereo not drawn) |  | inactive: -22.1%
36 | COc1ccc2c(C)nc(Nc3nc(C)cc(C)n3)nc2c1 | active: 2.91 µM | 
37 | Cc1ccc(CCNC(=O)c2ccc3c(c2)N(Cc2cc(C)ccc2C)C(=O)c2ccccc2S3=O)cc1 (stereo not drawn) | inconclusive [inhibitor, partial curve] | 
38 | O=C1CCNc2c(Cl)cc(Cl)cc21 |  | inactive: -3.61%
39 | COCCCNC(=O)C[C@H]1C[C@H](C(=O)N2CCCCC2)[C@@]2(CCc3ccccc3)c3[nH]c4cc(-c5ccco5)ccc4c3CCN2C1=O | inconclusive [inhibitor, single point] | 
40 | O=C(COc1cccc(C(F)(F)F)c1)Nc1ccc(S(=O)(=O)N2CCCCC2)cc1 | inconclusive [inhibitor, single point] | 
41 | Cc1cccc(C(=O)Nc2scc(-c3ccc(Br)cc3)c2C(=O)O)c1 | inconclusive [inhibitor, single point] | 
42 | O=c1c(O)c(-c2ccc(O)cc2)oc2cc(O)ccc12 | active: 26.6 µM | 
43 | CCN1CCN(Cc2ccc(NC(=O)c3cc(NC(=O)c4cncc(-c5cccs5)c4)cc(OC)c3)cc2C(F)(F)F)CC1 | active: 11.6 µM and active: 16.4 µM | 
44 | O=S1(=O)CC2N=C(N(Cc3ccc(F)cc3Cl)c3ccccc3F)SC2C1 (stereo not drawn) |  | inactive: 0.753%
45 | CCNC(=S)NNC(=O)c1cc(-c2cccnc2)nc2ccccc12 |  | inactive: 2.61%
46 | COc1ccc(NC(=O)c2ccccc2NC(=O)CN2CCCCCC2)cc1 | inconclusive [inhibitor, single point] | 
47 | Cc1ccc(S(=O)(=O)NC(CC(=O)NCC2CCCO2)c2ccccc2)cc1 (stereo not drawn) |  | inactive: -2.25%
48 | Cc1ccccc1C(=O)N[C@H](C(=O)OCC(=O)NC1CC1)C(C)C |  | inactive: -14.3%
49 | O=C(CN1CCN(S(=O)(=O)c2ccc(F)cc2)CC1)c1ccc(O)c(O)c1 | inconclusive [inhibitor, partial curve] | 
50 | Cc1ccc2c(c1)N(C(=O)CCC(=O)N1CCCCC1)CCO2 |  | inactive: 9.81%

Row | SMILES | Potency | activity change, negative = growth inhibition
51 | Cc1cccc(S(=O)(=O)N2CCC(CO)(Cc3ccccc3)CC2)c1 |  | inactive: 2.21%
52 | COc1ccc2c(c1)NC(c1ccc(F)cc1)=NC(c1ccc(F)cc1)=N2 | inconclusive [inhibitor, partial curve] | 
53 | CCCCN(Cc1cc2cc(OC)ccc2[nH]c1=O)S(=O)(=O)c1ccc(C)cc1 | active: 10.3 µM | 
54 | O=C1c2ccccc2C(=O)N1CCCCN(C(=O)c1cc2ccccc2oc1=O)c1ccc(F)cc1F | inconclusive [inhibitor, single point] | 
55 | CCOc1cc(/C=C/C(=O)O)ccc1OCCOc1ccc(F)cc1 |  | inactive: -7.09%
56 | Cc1ccc(-n2cc3c(=O)n(C)c(=O)n(C)c3c2)cc1C | inconclusive [inhibitor, single point] | 
57 | c1ccc(N2[C@@H]3c4ccccc4C[C@H]2c2ccccc23)cc1 |  | inactive: 19.7%
58 | Cc1cccc(C)c1NC(=O)C(C)N1CCCCC1 (stereo not drawn) |  | inactive: -0.847%
59 | NC(CCC(=O)NC(CCSC(CC(=O)O)C(=O)O)C(=O)NCC(=O)O)C(=O)O (stereo not drawn) |  | inactive: -7.12%
60 | O=C(Cc1c[nH]c2ccccc12)OCCOC(=O)Cc1c[nH]c2ccccc12 | inconclusive [inhibitor, single point] | 
61 | CCOC(=O)c1cccc(NS(=O)(=O)c2cc(Br)cc3c2N(C(=O)C2CC2)CC3)c1 | inconclusive [inhibitor, single point] | 
62 | Oc1cccc(C(O)CNCc2ccc(OCc3ccc(Cl)cc3Cl)cc2)c1 (stereo not drawn) | inconclusive [inhibitor, single point] | 
63 | Cc1cc2occ(CC(=O)N(C)CC(=O)Nc3ccccc3C(F)(F)F)c2cc1C | inconclusive [inhibitor, single point] | 
64 | CCCCCCNS(=O)(=O)c1ccc(NC(=O)C2CCCO2)cc1 (stereo not drawn) | active: 9.2 µM | 
65 | CCn1nnc2cc(C(=O)Nc3cc(OC)cc(OC)c3)ccc21 |  | inactive: -2.36%
66 | O=C(Nc1ccccc1Cc1ccccc1)c1ccc2c(c1)SC1=NS(=O)(=O)CCN12 | inconclusive [inhibitor, single point] | 
67 | CC(C)c1[nH]nc2c1C1(CCN(Cc3ccccc3)CC1)C(C#N)=C(N)O2 |  | inactive: 0.999%
68 | CC(C)(C)N(Cc1ccccc1)C(=O)COc1cccnc1[N+](=O)[O-] |  | inconclusive: -31.7% [inhibitor]
69 | CCOc1ccc(S(=O)(=O)N2CCN(C(=O)c3ccc(Cl)c(S(=O)(=O)N4CCOCC4)c3)CC2)cc1 | inconclusive [inhibitor, partial curve] | 
70 | COC(=O)c1ccc(OCC2c3cc(OC)c(OC)cc3CCN2C(=O)c2cccc(C)c2)cc1 (stereo not drawn) | active: 20.6 µM | 
71 | CCOC(=O)/C(C#N)=C(C)/C=C1\Sc2ccccc2N1CC | inconclusive [inhibitor, partial curve, poor fit] | 
72 | COc1ccc(/C=C/C(=O)OCC(=O)c2cc(C)ccc2C)cc1 |  | inactive: -22.4%
73 | COc1ccc(CNC(=O)CCS(=O)(=O)c2cc(Br)cc3c2N(C(=O)C2CC2)CC3)cc1 | inconclusive [inhibitor, single point] | 
